The inconclusive results got no clear call from the source; some entries with a clear call stand among them for comparison. For some of these results: Where the call is inconclusive, the potency comes from a doubtful curve fit. Active and inactive are the calls of the source. Unless noted, calls come from the whole dose curve; as a rule, active = well fitted curve in either direction with a large enough effect (not every such curve was filed as active); inconclusive = small, poorly fitted or top-dose-only effect, or another doubt; inactive = flat fitted curve, though single readings scatter.
Legend:
[1] = NFAT Signaling Pathway (AID 444); conditions: Jurkat NFAT-bla M1, carbachol, beta-lactamase ratio, 5 h; at 17.2 µM (top of the series) unless noted;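 note: carbachol stimulus at about its EC50 of 1 µM final; % is set by controls: 0 for no effect and ±100 for the full control effect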
Outline: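 Read-out: CCF4 FRET ratio (460 nm/530 nm) after 1 h RT dye loading, used for %activity and AC50 from titration series. Cells: Jurkat NFAT-β-lactamase/M1 line, treated with compound plus 1 uM carbachol for 5 h, 37 °C.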

[2] = target: 3',5'-cyclic-AMP phosphodiesterase 4B (Homo sapiens) (UniProt Q07343); experiment: qHTS Assay for Inhibitors of PDE-IV (AID 607; active = well fitted activation curve with a large enough effect in the main read-out, with a control signal flat, not every such curve was filed as active; inconclusive = small, poorly fitted or top-dose-only effect, or effect the other way, or a change in a side signal; note: potency is the fitted concentration of half-maximal effect; for activation (PDE inhibition): % of control where 0% means no effect); conditions: HEK293 ACTOne CNG channel cells, membrane potential fluorescence; activation (PDE inhibition): at 22.9 µM (top of the series)
Outline: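 ACTOne HEK293 cells carry a modified cAMP-gated CNG channel and express endogenous PDE4; plated 1000 cells/well, compounds up to 22.9 uM final. Membrane-potential dye fluorescence (ex 535/em 590) was read; parental cells received 10 uM forskolin + 100 uM RO 20-1724.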

[3] = target: Cytochrome P450 2D6 (Homo sapiens) (UniProt P10635); experiment: qHTS Assay for Inhibitors and Substrates of Cytochrome P450 2D6 (AID 891; active = well fitted curve in the direction sought with a large enough effect; inconclusive = small, poorly fitted or top-dose-only effect, or another doubt; inactive = no such curve, though single readings can be large; an effect the other way counts as inactive or inconclusive;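 note: luciferin methyl ether substrate demethylated by CYP2D6 with NADPH regeneration; potency is the fitted concentration of half-maximal effect; nearly all actives have a fitted effect of over 60% in size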); conditions: recombinant CYP2D6, luciferin-ME EGE luminescence; activity change, negative = inhibition: at 57.1 µM (top of the series)
Outline: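 Luminescent read-out of luciferin formed by 5 nM human CYP2D6 demethylating 30 uM Luciferin-ME EGE (Km level) over 60 min at room temperature after NADPH regeneration addition. Data normalized to full inhibition by 1.43 uM quinidine.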

[4] = qHTS Assay for Identification of Small Molecule Agonists for Hypoxia Response Element Signaling Pathway (AID 914; active = well fitted activation curve with a large enough effect in the signal ratio, with a control signal flat, not every such curve was filed as active; inconclusive = small, poorly fitted or top-dose-only effect, or effect the other way, or a change in a side signal; the % refers to the signal ratio; note: top concentration of the series differs between compounds; % of control where 0% means no effect); conditions: ME-180 (cervical carcinoma) HRE-bla reporter, beta-lactamase ratio, CoCl2, 17 h; activation: hits give high values
Outline: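 HRE-bla ME-180 cells with beta-lactamase reporter under hypoxia response element, compounds with EC50 CoCl2 for 17 hours at 37 C. CCF4 substrate, 460nm/530nm emission ratio gave %Activity; AC50 from titration series.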

[5] = qHTS Assay for Identification of Small Molecule Antagonists for NFkB Signaling Pathway (AID 895; active = well fitted inhibition curve with a large enough effect in the signal ratio, with a control signal flat, not every such curve was filed as active; inconclusive = small, poorly fitted or top-dose-only effect, or effect the other way, or a change in a side signal; the % refers to the signal ratio; note: % is set by controls: 0 for no effect and ±100 for the full control effect); conditions: NFkB beta-lactamase reporter cells, FRET ratio 460/530, stimulated with 10 pM TNF alpha; activity change, negative = inhibition: at 38.3 µM (top of the series)
Outline: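 Beta-lactamase reporter read-out (460 and 530 nm emission ratio, 405 nm excitation, 2 hrs substrate loading RT) after 5 hr stimulation with 10 pM TNF alpha in compound-treated NFkB-bla ME-180 cells in low-serum medium.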

[6] = qHTS Assay for Identification of Small Molecule Antagonists for Thrombopoietin (TPO) Signaling Pathway (AID 918; active = well fitted curve in the direction sought with a large enough effect; inconclusive = small, poorly fitted or top-dose-only effect, or another doubt; inactive = no such curve, though single readings can be large; an effect the other way counts as inactive or inconclusive; note: nearly all actives have a fitted effect of over 60% in size); conditions: TPO-dependent cell signaling reporter, antagonist mode; activity change, negative = inhibition: at 38.5 µM (top of the series)
Outline: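 Inhibition read as reduced luciferase luminescence after 24 h at 37 C in IL-3-deprived Ba/F3 cells carrying human TPO receptor and GPIIb-promoter reporter, stimulated with 26 pM TPO (final, its EC50) alongside compound.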

[7] = target: Muscarinic acetylcholine receptor M1 (Rattus norvegicus) (UniProt P08482); experiment: qHTS Assay for Antagonists of Acetylcholine Muscarinic M1 Receptor: Kinetic Measurement of Intracellular Calcium Response (AID 943; active = well fitted curve in the direction sought with a large enough effect; inconclusive = small, poorly fitted or top-dose-only effect, or another doubt; inactive = no such curve, though single readings can be large; an effect the other way counts as inactive or inconclusive; note: potency is the fitted concentration of half-maximal effect; nearly all actives have a fitted effect of over 75% in size)
Outline: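 Antagonism measured as reduction of carbachol-evoked (EC80, 100 nM final) calcium flux in rat M1-CHO cells after 10 min compound exposure. Fluo-4 signal read kinetically; ratio of maximal to basal fluorescence.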

[8] = target: Muscarinic acetylcholine receptor M1 (Rattus norvegicus) (UniProt P08482); experiment: qHTS Assay for Antagonists of Acetylcholine Muscarinic M1 Receptor: Measurement of IP-One Response (AID 944; active = well fitted curve in the direction sought with a large enough effect; inconclusive = small, poorly fitted or top-dose-only effect, or another doubt; inactive = no such curve, though single readings can be large; an effect the other way counts as inactive or inconclusive; note: potency is the fitted concentration of half-maximal effect; nearly all actives have a fitted effect of over 75% in size)
Tags give direction and shape of the fitted curve.

Chain of UniProt Q07343 (Q07343 whole entry, looked up): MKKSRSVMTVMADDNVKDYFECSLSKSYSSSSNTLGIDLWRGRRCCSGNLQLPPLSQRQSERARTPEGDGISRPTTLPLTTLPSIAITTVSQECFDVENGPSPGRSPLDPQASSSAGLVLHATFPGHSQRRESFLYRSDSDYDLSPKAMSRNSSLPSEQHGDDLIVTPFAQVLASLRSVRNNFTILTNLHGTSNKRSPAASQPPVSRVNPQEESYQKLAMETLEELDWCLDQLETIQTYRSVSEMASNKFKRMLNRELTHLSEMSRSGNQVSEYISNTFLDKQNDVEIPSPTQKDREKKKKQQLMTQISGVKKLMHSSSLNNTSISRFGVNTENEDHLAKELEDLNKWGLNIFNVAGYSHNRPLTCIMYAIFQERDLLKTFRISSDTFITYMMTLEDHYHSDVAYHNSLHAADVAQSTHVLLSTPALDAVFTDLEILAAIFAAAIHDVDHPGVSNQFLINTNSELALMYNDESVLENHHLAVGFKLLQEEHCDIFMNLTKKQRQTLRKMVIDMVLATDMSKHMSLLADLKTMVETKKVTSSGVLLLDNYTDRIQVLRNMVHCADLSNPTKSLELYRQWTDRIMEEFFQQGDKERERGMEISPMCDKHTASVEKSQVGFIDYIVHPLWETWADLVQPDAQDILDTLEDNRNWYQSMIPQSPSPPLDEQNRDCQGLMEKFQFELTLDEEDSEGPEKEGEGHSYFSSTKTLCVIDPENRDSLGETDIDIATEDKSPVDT
Chain of UniProt P08482 (P08482 whole entry, looked up): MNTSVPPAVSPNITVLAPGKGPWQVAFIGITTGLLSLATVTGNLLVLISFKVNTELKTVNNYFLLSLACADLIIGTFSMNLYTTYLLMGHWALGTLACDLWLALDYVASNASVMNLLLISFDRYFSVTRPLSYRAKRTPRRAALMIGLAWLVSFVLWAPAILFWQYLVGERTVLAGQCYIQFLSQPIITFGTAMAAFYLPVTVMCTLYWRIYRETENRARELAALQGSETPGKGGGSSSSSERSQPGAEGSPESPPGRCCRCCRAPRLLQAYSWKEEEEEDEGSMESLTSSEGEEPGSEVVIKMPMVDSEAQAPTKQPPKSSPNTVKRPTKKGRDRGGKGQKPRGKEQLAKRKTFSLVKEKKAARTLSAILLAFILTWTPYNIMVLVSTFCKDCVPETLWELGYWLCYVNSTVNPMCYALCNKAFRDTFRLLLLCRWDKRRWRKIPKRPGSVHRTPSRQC
Chain of UniProt P10635 (P10635 whole entry, looked up): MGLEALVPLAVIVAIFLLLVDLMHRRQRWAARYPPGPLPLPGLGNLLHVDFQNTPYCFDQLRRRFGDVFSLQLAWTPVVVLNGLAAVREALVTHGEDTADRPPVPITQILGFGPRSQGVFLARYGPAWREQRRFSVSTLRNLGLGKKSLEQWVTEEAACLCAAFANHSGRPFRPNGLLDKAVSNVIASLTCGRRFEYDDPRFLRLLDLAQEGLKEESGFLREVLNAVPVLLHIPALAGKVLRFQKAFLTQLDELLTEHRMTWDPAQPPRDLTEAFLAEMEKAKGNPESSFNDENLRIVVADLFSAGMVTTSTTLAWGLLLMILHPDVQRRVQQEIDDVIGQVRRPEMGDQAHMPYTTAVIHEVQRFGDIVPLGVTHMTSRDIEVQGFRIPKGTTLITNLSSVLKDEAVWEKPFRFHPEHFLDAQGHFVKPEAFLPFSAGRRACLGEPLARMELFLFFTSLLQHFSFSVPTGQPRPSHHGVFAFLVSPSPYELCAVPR

What does the source list for `Cn1cccc1C(=O)N1CCC2(CC1)CCN(c1ccccn1)CC2`?
activity change, negative = inhibition [1]: inconclusive: -61.1% [inhibitor] [at 7.69 µM]; Potency [2]: inactive

What does the source list for `CCN(CC)[C@@H](C)C(=O)N1c2ccccc2Sc2ccccc21`?
activity change, negative = inhibition [1]: active: -74.6% [at 38 µM]; Potency [2]: inactive

With `CC[N+]1(C)[C@@H]2CC[C@H]1CC(OC(=O)[C@H]1CC[C@@](C(=O)OC3C[C@H]4CC[C@@H](C3)[N+]4(C)CC)(c3ccccc3)c3ccccc31)C2` (stereo partly drawn) as the molecule, how does the activity change, negative = inhibition [1] read?
Its activity change, negative = inhibition is inconclusive: -42% [inhibitor].

And the Potency [2]?
Its Potency is “inactive”.

Which results are given for `CNCCC=C1c2ccccc2C=Cc2ccccc21`?
activity change, negative = inhibition [1]: inconclusive: 31.3% [inhibitor]; Potency [2]: inconclusive: 12 µM [activator, partial curve]; Potency [3]: active: 5.01 µM; activation [4]: inconclusive: 41.7%

What does the source list for `CC1(C)N=C(N)N=C(N)N1c1cccc(CSc2ccccc2)c1`?
activity change, negative = inhibition [1]: inconclusive: -61.8% [inhibitor] [at 7.69 µM]; Potency [2]: inactive

For `Clc1ccccc1-c1cc(NCc2cccnc2)ncn1`, which activity change, negative = inhibition [1] is on record?
The activity change, negative = inhibition was inconclusive: 44.6% [activator] [at 7.69 µM].

What about the Potency [2] of the same molecule?
Its Potency is “inactive”.

With `CC(C)N1CCN(c2ccncc2S(=O)(=O)N2CCCCC2)CC1` as the molecule, how does the activity change, negative = inhibition [1] read?
Its activity change, negative = inhibition is active: -81.6% [at 7.69 µM].

What about the Potency [2] of the same molecule?
Its Potency is “inactive”.

And the Potency [3]?
Its Potency is inconclusive: 3.98 µM [inhibitor, partial curve].

What does the source list for `Cn1cccc1C(=O)N1CCC2(CCCN(c3ccncc3)C2)CC1`?
activity change, negative = inhibition [1]: inconclusive: -71.9% [inhibitor] [at 7.69 µM]; Potency [2]: inactive

Which activity change, negative = inhibition [1] does the source give for `COc1ncc2nc(-c3ccc(F)cc3)c(=O)n(CCC#N)c2n1` here?
Its activity change, negative = inhibition is inactive: -5.63% [at 7.69 µM].

What about the Potency [2] of the same molecule?
The Potency was “inactive”.

For `CCCCCCCCCCCCCCCCCCOC[C@@H](COP(=O)([O-])OCC[N+](C)(C)C)OC`, which activity change, negative = inhibition [1] is on record?
The activity change, negative = inhibition was inconclusive: -83.7% [inhibitor] [at 38 µM].

And the Potency [2]?
The Potency was “inactive”.

And the activity change, negative = inhibition [5]?
The activity change, negative = inhibition was inconclusive: -1.54%.

What about the activation [4] of the same molecule?
The activation was inconclusive: -39%.

What about the activity change, negative = inhibition [6] of the same molecule?
Its activity change, negative = inhibition is inconclusive: 7.88% [phenotype inactive].

And the Potency [7]?
Its Potency is inconclusive: 14.1 µM [inhibitor, partial curve, poor fit].

And the Potency [8]?
Its Potency is inconclusive: 28.2 µM [inhibitor, partial curve, poor fit].
